From the supplement of paper PMC12632987
Over roughly 4,500 sequences, “median log2 fold change of GCK-ALFA target abundance (FLAG IP / Myc IP barcode read proportion)” has its median near 0.078; the lowest 2% begin near -0.6. Some of the results follow.

B1: GBRAP_80_6795 (protein)
chain: AEERLKKALEEIEKLDKELAKKVKEIVEIAREMGVSTEDLADFAEAIAELLKLDKEKARELVEELKEELEELKKEGNKAEAEAAVRVYAGEALLEVEELE
B2: GBRAP_125_3140 (protein)
chain: MKEAEIELAEALAKAMGFSEEEIKELKKLAEASDPRQTIIAILLAEGFEELAELAEKVLPKLTEEELKELTELALSMKNKSKEELEKALLEKLKELEKKL
B3: GBRAP_186_5385 (protein)
chain: EEEAEKELDKKIEEYEKKGYRVIVSYIEGKSLEEIKKSIEREADAVAALAKETGEKWALIVYVKTKKEDIEEIKEYADKINKEYLAKTGVVVDVVVANSD
B4: GBRAP_157_3954 (protein)
chain: EILYETFVVTTEDTLEEIRARAREIAERIKAAGVPAVLVIVVSKEDEELAESIADYIEAVLEYETGMDIEVISEILPPTATREEAEAKAEELLEEAKKKR
B5: GBRAP_52_6213 (protein)
chain: MEEEIRKAAEEIADALIAGDEEKLIKLVKEAKEKFSLEELEEIAAETGRILAERLKGDEERIVELIDRLEEAALEAGLSEDDALALEGAAEAAAIKTLLA
B6: GBRAP_78_6629 (protein)
chain: EVEELIDKALEELNKAAKLTKKLPEEDANELLDLLVEAASHLLEAEEKGGDLKELEEAKKHLEKAIKKLKELNDERAEPLLKEVEKALKLVEKAIKLLKK
B7: GBRAP_128_3579 (protein)
chain: SVEEVRAEVRALLEAMKTADAAEQKAIATEIATRFTTLTPEERRAAAETIEELLPELSAEQLDILADALRAARPTADPEAANLLADVEVAALNEALEKEE
B8: GBRAP_150_3920 (protein)
chain: DLEELLLIAETLIDILEAILDGEYELLPHALKLAKAALEEAKEVSPELKELAEKLVKLLEEALKLKKEGGKKEEIKKKIEEALKVAREIAKLLKELIKKK
B9: GBRAP_150_3918 (protein)
chain: DLETLLTIVDTLIDILEAILDGEFDLLPHALKLAKIAVDEAKDIDEELLKLAEEMLKEIEEAKKLLEEGGPKEEILKKVKEALKIAKELEKKIKELIKEK
B10: GBRAP_139_3729 (protein)
chain: NEDEEAVEEVVRLTRESLETGGEKVREIAKLLNSLDEETREKAAEAMAEVAEEESFDKVEAFFDALIETLLTEFKDEDLADIVEAAANRALARVAVREEA
B11: GBRAP_14_3865 (protein)
chain: MEELIKAVKNTAEETKAFAAELAPEHAAEIQAKIDELAKEIIEKIKKENINKEELAKLIDEAADALGAYMAEKGYLTPEEIAAFRAHLLSTALLELEKIE
B12: GBRAP_14_3826 (protein)
chain: MEEIEKVLEEMAEELKELFKEISPEKAEELAEAVEEEIEEALEEIKETGDAEEAMEEAEEELVAEVKEILADEPEEVQATAVAAVRIETAEAEEEIDELL
B13: GBRAP_160_4181 (protein)
chain: SEKLEKAEEEIREIFAEAIEMMKGETAENRANIASVAFGEILLLLEELGLLTDELGAEIEEIEDEVVSTILANPDLTDEELAALLREAEERILEALRASS
B14: GBRAP_160_4518 (protein)
chain: MEDLERMKKLIDEAAERIKESIDEESVEDAIVVAAVEYGEVIMEAVEDESFSDEAEDAIAEIADELVADLKANKNASKEELKKIVDEHAEKLKKELEKLS
B15: GBRAP_39_5664 (protein)
chain: EEDEENELLFEYYLAKAEGYRIKEGISDEELIERGKELLKAIAKEHPEIKELVEELLKEVDKGDEDVGLAAAGIALDYLEGLPIEEIKEHLEKLLKYVKK
B16: GBRAP_14_3845 (protein)
chain: SEELRKKLLEAVEKTIEELRKIAPPEYAPRVEKFGERLRKAVEEVLKLGNLEEASKRLIEVAEETVEELFADLPEEERAALRAEAVNTLALEFEKIEEEL
B17: GBRAP_83_6870 (protein)
chain: AEKITVAAPGDRVAEATDAVIDLTKNEGYDVELEIIARPEDREKVLAGARRLAEAGVATPITVYGVGMTAEEAEALEAELRAIFAAAGVDATVEVILEEP
B18: GBRAP_35_5616 (protein)
chain: DIDKEVAESLVDLIEALTEAVPELPVDKLVAITNSLVKAVESFVEKHKDDAENLEKLAKALKKLLEAIEKYHGDDPEARKAAEKVKKAAKKAEEAAKKAK
B19: GBRAP_11_2795 (protein)
chain: KKEKLKKLAEVLRKAAEALERLIAAGPEDKEGWEEARKLLEEAEKLAEEAGDEDTAELLKFALEDLEKAQKDPANAQQHLENALATVRVAEGLTLLEIEE
B20: GBRAP_95_7081 (protein)
chain: EEDLEEVVVLADTAIDLYDAGLKEQAARAMRAALDAAEELGWKVADPELFVRLLERFAELALEHFTLEEVERALEAAEAAGAPEELRERLRAAAAALRAR
B21: GBRAP_160_4051 (protein)
chain: EKSKEELLKMVEEARKEVLEVLDEEGAEAALVMFEGLSGEIIMEAAEDPNASDELVDELAKIRDEGVKRLRENRNASKEELKKIIEEAAEEMKEAIKKHY
B22: GBRAP_11_2819 (protein)
chain: MDEVVKELIEVLKKLAEAADKYLKEDVGDEELLKKIEELAKKALELAKKLNDPAVIREAQAILDTVEEAKKDPANREQYVANARAGARTLLANLEEEAEE
B23: GBRAP_117_2572 (protein)
chain: MEKLKKAEEEVRKFVKRVAERLKEMKTLSPEEQAKALAELEKETYEFVKKMIEEVGKDKAIELFDEAIAELDAELYFQVSLLFENAVQRIEEEEKKKEEE
B24: GBRAP_52_6281 (protein)
chain: SEEEVEEVAEEIIRLVEEGKLEEALELARRAVEEFSLEEVLRLGERLIEAIKELPPEKVDLMLEVVDELADALEEKFGEESLADVIEARAAAAAYERLQA
B25: GBRAP_11_2893 (protein)
chain: KKEKLEKLAEKAEEVIKLLKELQEKGAENEELRKKLEEKAKEALELAKESLDESDVELVKYLIELIKEAQKNPETAQQYLDEALATARVLLGQVLLEIEE
B26: GBRAP_74_6507 (protein)
chain: SQELIDALVAAVEAGDWATAIALLEEIFATEDKETRDEALAALKEALEKNKDKFTAEQAEALLDVVIANADKASDEAVDDLSSLLAKIHAEKLAAEAAAA
B27: GBRAP_160_4498 (protein)
chain: SEKLEKAFKELDRIAELTIEAAKEVSPEDKPLIIDAYMGDMIVYLKEEYGISEETEDKALEEADKKVAELKAIPNPTPEQIEAIVNDFTEFLKELLKEES
B28: GBRAP_128_3349 (protein)
chain: LNEEKLEKVRKMAEEMVKADVEEAYKLTKELAEFIGTLNDEEAEAAAEILIEALPKFTVEQLDAIADALREMRPKMDPFKANLLAEVQVEALNEAEELEE
B29: GBRAP_125_3068 (protein)
chain: EMEETLENLAELAKALGFSESDIEEAVEIARKSSIKNTLIAIMMAEGAEEVADLVEKITEEEAKEVLKELVEELKKNPNFTPEEVIKKLKELLEKKIEER

The binders below were run against GABARAP, O95166 (assay: median log2 fold change of GCK-ALFA target abundance (FLAG IP / Myc IP barcode read proportion) (log2 ratio); each designed protein is fused to an ALFA-tag nanobody in HEK293 cells to bring the named protein to FLAG-tagged glucokinase (GCK); Myc marks an untargeted standard; higher = target protein stabilised (more abundant)). Details: target protein: 3xFLAG-MCP-GCK-ALFA reporter; HEK293 landing pad (RPLP).
GABARAP, O95166, sequence (O95166 whole entry, the tested form may be a part): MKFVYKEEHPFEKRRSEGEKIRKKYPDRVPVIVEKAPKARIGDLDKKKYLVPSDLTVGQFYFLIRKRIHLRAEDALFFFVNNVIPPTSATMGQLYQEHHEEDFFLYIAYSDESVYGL
Method in brief: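 Sequencing of reverse-transcribed, amplified circular RNA barcodes from anti-FLAG and anti-Myc immunoprecipitates provided the readout for an ALFA-nanobody-fused binder library recombined into HEK293 landing-pad cells. Those cells were induced with 2 μg mL^−1 doxycycline, transfected with a plasmid expressing a FLAG-tagged target and a Myc-tagged standard, and lysed after 48 h. Target abundance is the per-binder median log2 ratio of FLAG to Myc barcode read proportions. Only barcodes at a proportion of ≥10^−7 in both replicates and binders with ≥3 barcodes per replicate were kept, with a 10^−6 pseudocount added before the two replicates were pooled.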

Binder | median log2 fold change
B1 | 0.0713
B2 | 0.323
B3 | 0.119
B4 | -0.0866
B5 | 0.0147
B6 | -0.00372
B7 | 0.177
B8 | 0.0639
B9 | 0.0668
B10 | 0.134
B11 | 0.279
B12 | 0.296
B13 | -0.259
B14 | -0.272
B15 | 0.132
B16 | 0.354
B17 | 0.114
B18 | 0.12
B19 | 0.102
B20 | 0.285
B21 | 0.192
B22 | 0.324
B23 | 0.245
B24 | -0.4
B25 | -0.102
B26 | -0.00895
B27 | 0.16
B28 | 0.0463
B29 | -0.064
